According to the supplement of paper PMC3334620:
The full ranking holds about 33,000 sequences; the median of “E-score (-0.5 to 0.5)” is about -0.016, and the highest 2% start at about 0.31. The list shows a part of the results.

Molecular target: Cst6 (UniProt P40535)
Assay: PBM E-score (8-mer binding enrichment) (E-score (-0.5 to 0.5)); higher = stronger / more preferred TF binding; most listed sequences are background and not binding sites
Conditions: protein concentration: 200 nM; construct: GST-DNA-binding domain
Method in brief: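 Detection of bound protein used fluorescent anti-GST, with scans normalised by masliner. The proteins were GST-tagged yeast transcription factors applied at about 100-200 nM to universal all-10-mer Agilent arrays made double-stranded by primer extension. Each ungapped eight-base word, pooled with its reverse complement, was scored with an E-score from the Universal PBM Analysis Suite.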

Sequence | PBM E-score
GGTTTAAC | 0.00839
GCATCCAC | 0.0482
ACTCTCTC | -0.0935
ATGCGTTG | 0.143
ACTGTTTG | 0.0599
AGTATACA | 0.0734
GACTTAAA | 0.112
ACAAGAAT | 0.246
CAGAGCAG | -0.107
ACGGCCCG | 0.0503
AATTGTAC | 0.159
CAACATAC | 0.209
GAGTGCGA | -0.199
CTTAAGCC | -0.0367
ACTTCACA | 0.079
CCCAACGC | 0.0283
GTTCATAA | 0.0887
GTCTGTTA | -0.0274
AATCTACC | 0.0596
GACACCTA | -0.203
ACACTTCT | 0.0868
AGGGCGGC | -0.181
ATTGATAG | 0.11
CCATATAC | 0.154
CAGCAGTC | -0.258

Sequence | PBM E-score
ATATAACA | 0.268
CTATGAAA | 0.0508
TACAACAA | 0.143
CGCTGAGA | -0.0296
TGCGTACA | 0.0561
ACTGTCCG | -0.145
CTGTGGTA | -0.0525
AACCTTAC | 0.196
GCCAGAAA | 0.0609
AATGGTTA | 0.0763
CCACGCCG | -0.0688
CCCTATAA | -0.148
ACGTACTC | 0.177
TCCATAAA | 0.123
CGATCCTC | -0.156
CTCTGGTC | -0.0874
AAGGCAGA | -0.238
GTCTCCAC | -0.106
GATCCAGA | -0.00579
CAGCGATA | -0.191
AGATAATC | 0.0163
CAGGTTCA | -0.196
CTGGACTA | -0.267
CCAAGGAG | -0.0523
CGTGTGAA | 0.0381

Sequence | PBM E-score
GCGATCTA | 0.0209
ATCGAGAC | -0.117
AGCCATAT | 0.0167
ATCGTGCA | 0.0523
CCAACTAC | 0.0257
CCGCTCAG | 0.0132
CCATCGAG | 0.0483
TATTAATA | 0.0736
CTCCTCGA | -0.0124
ACGGACAC | 0.104
CAACACGG | 0.0445
CTTCGCGC | 0.22
GACACAGA | 0.126
CAGCCTAA | -0.0455
AAGGGACT | -0.229
AAGACTAT | 0.0259
AAGATTCA | 0.0725
CTACTCTA | 0.123
CGATTAAA | 0.172
GATCTGAC | 0.0852
ATTTGGTA | 0.145
CCCGGGTC | -0.333
AGCGCGGC | 0.115
CGGGTAAA | 0.0858
AGGGCTCG | -0.269

Sequence | PBM E-score
AAGAAATG | 0.215
CCTCACCA | 0.0882
ACCGAGGG | -0.446
AAGTGGTA | -0.0919
ATTTTTGA | 0.153
CTGGTCCC | -0.425
CCAACGAG | -0.262
AACTATTA | 0.221
ACTTAATG | 0.159
ATATTATG | 0.291
GTCGCTAA | 0.0821
ATATGCAA | 0.187
CATCCTCG | 0.0458
AGCGTTCC | -0.123
GATTAATC | -0.0489
CTATTGAG | 0.115
CACACCTA | -0.0684
CGGGGCCA | -0.234
ACTGGCAT | -0.143
CAATTATG | 0.237
ACGCATAT | 0.0868
CCTCGTTC | -0.0622
TATTACGA | 0.283
ATATTGAT | 0.253
ATCAAACA | 0.107

Sequence | PBM E-score
AATCCCAA | 0.0031
TTTCGAAA | 0.223
AGGTACTG | -0.085
GGGACCAC | -0.0412
ATTAGACA | 0.0393
ACGGAGAT | -0.0389
AGCCGATG | -0.131
AAATTAAC | 0.2
CTGCCACC | -0.0419
ACAAGCGC | -0.0824
ACCGAATC | -0.00093
ACGCATCT | 0.079
GCATGTCC | -0.224
CAGTCGCA | -0.0676
TGTAGACA | 0.0564
CATGATAA | 0.155
CGGCTCAG | 0.209
CTGTTCTA | -0.0878
ACGCATAG | -0.0309
CTCGGAAC | -0.156
ATCGTGTA | 0.0383
AAGGTCTC | -0.126
TTCGCAAA | 0.146
AACCCCTG | -0.373
GCAACGAA | 0.16

Sequence | PBM E-score
ATCTAAAC | 0.0673
AGTTGATC | 0.147
ACTGCCAA | -0.054
AGGAGAAT | -0.038
AGAATATC | 0.0571
ACGAACGA | 0.0476
AGACATGG | -0.0372
GTTTGTGA | 0.0799
AGACGTGA | 0.0119
CGTCATGC | 0.472
ATCAATGG | -0.0319
CCGATAGG | -0.183
AACTGAGC | -0.152
CCCAGCGC | -0.215
AATTGCAA | 0.163
CATGCGCC | 0.0487
AACAGGTT | -0.0214
AGTTCATG | -0.0471
CAATCAGC | -0.117
ATGACGTC | 0.497
AATTGATG | 0.242
AGCCTTAT | -0.0913
GGGATCAA | 0.0155
GACGGACA | 0.175
CGGTGGAG | -0.325

Sequence | PBM E-score
CTCAAGCC | -0.183
GAGAGAGC | -0.197
CGGCCGAA | 0.0148
GAATGCGA | 0.114
AGTAGCTA | 0.118
CTATCCAG | -0.137
AGCATACA | 0.165
GTTTCGGA | 0.0663
GGTAGCAC | -0.266
AGGCCGTG | 0.0348
AAGTAATT | 0.22
ATTATTTC | 0.251
CCTCCCAG | -0.212
CACAACGC | 0.119
ATCCTTGA | -0.0599
CGAGATGC | -0.116
GGGACCCA | -0.238
ACCCTCAA | -0.237
AATTTCCG | 0.112
ATATCAGG | 0.106
ATTTCAAA | 0.211
CACGCGCA | -0.0519
AATAGCTG | 0.0474
GGTGGGAA | -0.146
CCTCCGCC | -0.216

Sequence | PBM E-score
AGTAGGCG | 0.0103
CTATAGTA | -0.0525
CAACTCGA | -0.0544
ACGACTGA | -0.107
CGCCATGA | 0.0827
TACTGTAA | 0.0263
ATTGTCTC | -0.00153
TGAAACCA | -0.0373
AATAAGTA | 0.215
AGATTTGA | 0.137
GCGCCCTA | -0.0411
ATCTTTCA | 0.155
AGTCTTGC | -0.0228
AGTCCAAC | -0.275
GGGGTTCA | -0.296
ACAAGCAC | -0.0185
GTGTACGA | -0.0474
AAAAAGTG | 0.242
CCGGTCGC | -0.143
GCCCAGAC | -0.395
CCTGAAAA | 0.0412
ATAGTGAT | 0.253
ACTCTTAC | 0.134
AAGTGTAG | 0.00605
CGGTCCGA | -0.171

Sequence | PBM E-score
TAGAAAGA | -0.0936
AATAGGAG | -0.122
GACGCAGC | 0.169
AGAAGCGC | 0.151
AATTGAAG | 0.0234
ACTAGGAG | -0.234
GCCGTGGA | 0.105
CGACACTA | -0.0515
AGAACAAC | 0.034
CATTTATA | 0.226
CTGGTTCA | -0.191
AAGCCCTT | -0.189
CATACCCA | -0.0162
AGGGGACG | -0.197
CACACGCG | 0.0985
CCGGACGA | -0.261
CCTTCAGA | -0.156
AGACCGGG | -0.298
CTCGAATC | -0.22
